Laboratory results from PubChem BioAssay AID624417 (National Center for Advancing Translational Sciences (NCATS), 2012).
Several values for one entry are separate records, joined by “and”; a condition that tells them apart may be missing. Equal values may be shown once. Out of some 410,000 compounds screened, about 6,400 (1.6%) were called active. This list was built around the results that the source calls inconclusive (neither active nor inactive); the mix of calls is not that of the screen. The call rests on the fitted dose curve; in most records, active means well fitted inhibition curve with a large enough effect; inconclusive means small, poorly fitted or top-dose-only effect; inactive means no such curve, though single readings can be large or run the other way. Potencies of inconclusive entries are doubtful fits and often do not repeat.

Biological target: Glucagon-like peptide 1 receptor (Homo sapiens) (UniProt P43220)
Assay: qHTS of GLP-1 Receptor Inverse Agonists (Inhibition Mode); further: nearly all actives have a fitted effect of over 55% in size
Conditions: HEK293 GLP-1R CRE-luciferase, luminescence, 24 h, GLP-1R form is constitutively active; activity change, negative = inhibition: at 38.3 µM (top of the series) unless noted
Procedure, shortened: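 HEK293 cells stably co-expressing a cAMP-responsive luciferase reporter and constitutively active GLP-1R were seeded, incubated 12 h, then exposed to compounds for 24 h at 37 C. Luminescence was read 12 min after detection reagent; inverse agonists lower signal.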
On the % scale 0 is the no-effect control and ±100 the full control effect; potency means the concentration at half of the fitted maximal effect; tags describe the fitted curve by direction and shape.

Sequence of UniProt P43220 (P43220 whole entry, looked up): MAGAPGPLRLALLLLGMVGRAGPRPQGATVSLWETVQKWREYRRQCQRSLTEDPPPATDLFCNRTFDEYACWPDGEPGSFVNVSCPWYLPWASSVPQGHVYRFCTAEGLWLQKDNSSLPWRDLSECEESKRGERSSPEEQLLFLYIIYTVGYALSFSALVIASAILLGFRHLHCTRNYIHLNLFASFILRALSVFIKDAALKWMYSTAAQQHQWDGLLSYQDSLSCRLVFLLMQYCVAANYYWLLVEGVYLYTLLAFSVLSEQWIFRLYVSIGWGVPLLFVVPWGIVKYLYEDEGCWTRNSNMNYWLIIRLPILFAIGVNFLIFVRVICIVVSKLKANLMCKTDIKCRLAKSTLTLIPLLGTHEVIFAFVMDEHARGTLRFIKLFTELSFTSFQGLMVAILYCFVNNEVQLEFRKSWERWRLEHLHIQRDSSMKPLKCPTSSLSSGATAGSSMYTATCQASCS

Q: Which Potency does the source give for COCCNc1nc(-c2cc(-c3ccc(Cl)cc3)on2)cc(C(C)C)n1 here?
A: inconclusive: 28.2 µM [inhibitor, single point]

Q: For COc1cc(/C=N/NC(=O)c2cc(C)oc2C)ccc1OCc1ccccc1, which Potency is on record?
A: inconclusive: 5.62 µM [inhibitor, partial curve, poor fit]

Q: O=C(c1ccc(-c2cccc(C(F)(F)F)c2)o1)N1CCCCCCC1 was tested. Which Potency did it give?
A: inconclusive: 12.6 µM [inhibitor, partial curve, poor fit]

Q: COc1ccc(/C=C/C(=O)c2c(O)c(OC)c3occc3c2OC)cc1 was tested. Which Potency did it give?
A: inconclusive: 31.6 µM [inhibitor, partial curve, poor fit]

Q: With CCOc1ccccc1CNC(=O)c1ccc2c(c1)N(CC)CCS2 as the compound, how does the Potency read?
A: inconclusive: 14.1 µM [inhibitor, partial curve, poor fit] and inconclusive: 7.08 µM [inhibitor, partial curve, poor fit]

Q: How did the Potency turn out when COc1cc(C(=O)Nc2sc3c(c2C#N)CCCC3)c(Br)c(OC)c1OC was run?
A: inconclusive: 0.891 µM [inhibitor, full curve, poor fit]

Q: How did the Potency turn out when Cc1cccnc1C1=NOC(Cc2ccccc2)C(=O)N1Cc1ccccc1F (stereo not given) was run?
A: inconclusive: 28.2 µM [inhibitor, single point]

Q: Which Potency does the source give for Cc1ccc(CN2C(=O)C(CC(C)C)Nc3ncnc(N4CCN(c5ccccc5)CC4)c32)cc1 (stereo not given) here?
A: inconclusive: 10 µM [inhibitor, single point] and inconclusive: 8.91 µM [inhibitor, partial curve, poor fit]

Q: CSc1ccc(S(=O)(=O)N(CC(=O)NCc2ccccn2)c2ccc(C)cc2)cc1 was tested. Which Potency did it give?
A: inconclusive: 3.16 µM [inhibitor, partial curve, poor fit]

Q: Cc1ccccc1NC(=S)NC(C)CCc1ccccc1 (stereo not given) was tested. Which Potency did it give?
A: inconclusive: 22.4 µM [inhibitor, single point]

Q: Cc1cc(C(=O)COC(=O)c2ccc(N)c([N+](=O)[O-])c2)c(C)n1-c1ccc2c(c1)OCO2 was tested. Which Potency did it give?
A: inconclusive: 6.31 µM [inhibitor, partial curve]

Q: Which “activity change, negative = inhibition” value does the source give for Cc1ccc(NC(=O)CCc2nc(-c3ccccc3F)no2)c(C)c1 here?
A: inactive: 0.669%

Q: COc1ccccc1CN1C[C@@H]2C[C@@H](c3ccc4nsnc4c3)N3CCC[C@@]23C1=O was tested. Which “activity change, negative = inhibition” value did it give?
A: inactive: -18%

Q: Which Potency does the source give for Cc1cccc2c1NC1(CCCC1)CC2C (stereo not given) here?
A: inconclusive: 10 µM [inhibitor, single point]

Q: For Cc1oc(-c2ccc(Cl)cc2)nc1CN1CCC(C(=O)NCCCN2CCOCC2)CC1, which Potency is on record?
A: inconclusive: 2.82 µM [inhibitor, single point]

Q: Cc1ccc(-n2c(=O)c3oc4ccccc4c3n(Cc3ccccc3)c2=O)cc1C was tested. Which “activity change, negative = inhibition” value did it give?
A: inactive: -2.74%

Q: CN(Cc1ccccc1F)C(=O)c1ccccc1Sc1ccccc1C#N was tested. Which Potency did it give?
A: inconclusive: 10 µM [inhibitor, partial curve, poor fit]

Q: CCCCCC(=O)N1C[C@@H](O)[C@H](n2cc(C3CC3)nn2)C[C@@H]1c1ccc(C)cc1 was tested. Which “activity change, negative = inhibition” value did it give?
A: inactive: 13%

Q: CC1CCCN(C(=O)Cc2cccc3ccccc23)C1 (stereo not given) was tested. Which Potency did it give?
A: inconclusive: 20 µM [inhibitor, single point]

Q: For COc1cc(/C=N/NC(=O)c2nnn(-c3nonc3N)c2C(C)C)ccc1OCc1ccc(F)cc1, which Potency is on record?
A: inconclusive: 1.26 µM [inhibitor, full curve, poor fit]

Q: O=C1CCCc2cc(S(=O)(=O)N3CCCC(C(=O)NCc4ccccc4Cl)C3)ccc2N1 (stereo not given) was tested. Which “activity change, negative = inhibition” value did it give?
A: inactive: -13.2%

Q: O=c1c(Cl)c(Cl)cnn1Cc1nnc(-c2ccccc2Br)o1 was tested. Which Potency did it give?
A: inconclusive: 10 µM [inhibitor, partial curve, poor fit]

Q: With COc1ccc(/C=C2/CCc3ccccc3C2=O)cc1CN1CCOCC1 as the compound, how does the Potency read?
A: inconclusive: 12.6 µM [inhibitor, single point]

Q: Which Potency does the source give for Cc1ccccc1-c1cc2nc(NCc3ccc(N(C)C)cc3)n(C)c(=O)c2s1 here?
A: inconclusive: 7.94 µM [inhibitor, partial curve, poor fit]

Q: For Cc1noc(-c2ccc(N3CCCCC3C)c([N+](=O)[O-])c2)n1 (stereo not given), which “activity change, negative = inhibition” value is on record?
A: inactive: -3.34%

Q: With COc1ccc(CC2(CO)CCN(Cc3cnn(-c4ccc(F)cc4)c3)CC2)cc1 as the compound, how does the Potency read?
A: inconclusive: 10 µM [inhibitor, partial curve, poor fit]

Q: For O=C1OCCN1C(=O)[C@H]1[C@H](c2ccccc2)C(c2ccc(F)cc2)=NN1c1ccccc1, which Potency is on record?
A: inconclusive: 10 µM [inhibitor, partial curve, poor fit]

Q: How did the Potency turn out when CC(=O)c1cccc(NC(=O)C2CCCN(S(=O)(=O)c3ccc(F)cc3)C2)c1 (stereo not given) was run?
A: inconclusive: 8.91 µM [inhibitor, partial curve, poor fit]

Q: For C=CCn1c(SCc2csc(-c3ccc(C)cc3)n2)nnc1-c1ccccc1OC, which Potency is on record?
A: inconclusive: 12.6 µM [inhibitor, single point]

Q: Which Potency does the source give for COc1cc(Cl)c(C)cc1N1C(=O)CN(Cc2ccccc2)C1=S here?
A: inconclusive: 10 µM [inhibitor, partial curve, poor fit]

Q: With Cc1ccc2ccc(C(Nc3ccccc3)c3ccc(Cl)cc3)c(O)c2n1 (stereo not given) as the compound, how does the Potency read?
A: inconclusive: 7.08 µM [inhibitor, partial curve, poor fit]

Q: Which Potency does the source give for O=S(=O)(c1ccc2ccccc2c1)N1C=CC(C(F)(F)F)=NCC1 here?
A: inconclusive: 3.98 µM [inhibitor, partial curve, poor fit]

Q: For CCOC(=O)/C=C1\SCC(=O)N1CC(=O)Nc1ccc(C(C)C)cc1, which Potency is on record?
A: inconclusive: 14.1 µM [inhibitor, partial curve, poor fit]

Q: With CCN(Cc1ccccc1)C(=O)c1ccc(N(C)S(=O)(=O)c2ccc(C)cc2)cc1 as the compound, how does the Potency read?
A: inconclusive: 11.2 µM [inhibitor, single point]

Q: COc1ccccc1Nc1nc2ccc(C)cc2cc1C#N was tested. Which “activity change, negative = inhibition” value did it give?
A: inactive: 8.46%

Q: How did the Potency turn out when CCOC(=O)/C(=N\Nc1ccccc1Cl)N1CCN(c2ccccc2OC)CC1 was run?
A: inconclusive: 5.62 µM [inhibitor, partial curve, poor fit]

Q: How did the Potency turn out when CC(C)CCNC(=O)c1c[nH]c2ccc(S(=O)(=O)Nc3cccc(C(F)(F)F)c3)cc2c1=O was run?
A: inconclusive: 22.4 µM [inhibitor, single point]

Q: With O=c1c(C/C=C/c2ccccc2)c(O)ccn1CCc1c[nH]c2ccccc12 as the compound, how does the Potency read?
A: inconclusive: 28.2 µM [inhibitor, single point]

Q: Cc1ccc(C(=O)NC2CCCCCCC2)cc1S(=O)(=O)N1CCOCC1 was tested. Which Potency did it give?
A: inconclusive: 10 µM [inhibitor, partial curve, poor fit]

Q: For CC(CC(=O)c1ccccc1)=NCC(O)CN=C(C)CC(=O)c1ccccc1 (stereo not given), which Potency is on record?
A: inconclusive: 7.94 µM [inhibitor, partial curve, poor fit]

Q: How did the Potency turn out when Cc1cc(C)cc(C(=O)NC(CC(N)=O)c2ccc(N3CCN(c4ccccc4)CC3)c([N+](=O)[O-])c2)c1 (stereo not given) was run?
A: inconclusive: 28.2 µM [inhibitor, single point]

Q: Which Potency does the source give for CN1CCN(CC#CCC(O)(c2ccccc2)c2ccccc2)CC1 here?
A: inconclusive: 20 µM [inhibitor, single point]

Q: How did the “activity change, negative = inhibition” value turn out when CCN1CNC(=S)N(C(C)c2ccccc2)C1 (stereo not given) was run?
A: inactive: -16.1%

Q: Which “activity change, negative = inhibition” value does the source give for CCOc1ccc(CCN2C(=S)N([C@@H](Cc3ccccc3)CN3CCCC3CN3C(=S)NC[C@@H]3Cc3ccccc3)C[C@@H]2Cc2ccc(O)cc2)cc1 (stereo not given in full) here?
A: inactive: -29%

Q: For COc1ccc(C(CNC(=O)c2oc3ccccc3c2C)N2CCCCC2)cc1 (stereo not given), which Potency is on record?
A: inconclusive: 28.2 µM [inhibitor, single point]

Q: Which Potency does the source give for C=C(C)C1Cc2c(C)nn(-c3nc(C)cc(C)n3)c2C1 (stereo not given) here?
A: inconclusive: 2.51 µM [inhibitor, full curve, poor fit]

Q: Which Potency does the source give for C/C(=N\NC(=S)Nc1ccc(F)cc1)C1CC1 here?
A: inconclusive: 28.2 µM [inhibitor, single point]

Q: Which Potency does the source give for C/C(=N\NC(=O)c1cc(C(C)C)[nH]n1)c1ccco1 here?
A: inconclusive: 10 µM [inhibitor, partial curve, poor fit]

Q: O=[N+]([O-])c1ccc(Cl)c(/C=N/N2CCN(Cc3ccccc3Cl)CC2)c1 was tested. Which “activity change, negative = inhibition” value did it give?
A: inactive: -9.25%

Q: Which Potency does the source give for C=CCNC(=O)c1ccc(NC(=O)C2=CSCCO2)cc1 here?
A: inconclusive: 2.51 µM [inhibitor, partial curve, poor fit]

Q: With CCc1ccc(OCC(O)CN2CCN(c3ccc(OC)cc3)CC2)cc1 (stereo not given) as the compound, how does the Potency read?
A: inconclusive: 14.1 µM [inhibitor, partial curve, poor fit]

Q: How did the Potency turn out when CCN1CCN(C(=O)Cn2c(-c3cccs3)cc3cc(Cl)ccc32)CC1 was run?
A: inconclusive: 10 µM [inhibitor, partial curve]

Q: With Cc1cc(NC(=O)c2ccc(C)s2)n(-c2ccccc2)n1 as the compound, how does the Potency read?
A: inconclusive: 28.2 µM [inhibitor, single point]

Q: How did the Potency turn out when CC(O)(c1cccc(F)c1)c1nc(-c2cc3ccccc3o2)cs1 (stereo not given) was run?
A: inconclusive: 22.4 µM [inhibitor, single point]

Q: Which Potency does the source give for CCC(Cc1ccccc1)NS(=O)(=O)c1ccc2c(c1)NC(=O)C(C)S2 (stereo not given) here?
A: inconclusive: 28.2 µM [inhibitor, single point]

Q: For O=C(NC(Nc1nc2ccc([N+](=O)[O-])cc2s1)(C(F)(F)F)C(F)(F)F)c1cccnc1, which Potency is on record?
A: inconclusive: 2.24 µM [inhibitor, full curve, poor fit]

Q: Which “activity change, negative = inhibition” value does the source give for CCOn1c(=O)c(-c2cccc(Br)c2)[n+]([O-])c2ccccc21 here?
A: inactive: 5.6%

Q: With Cc1ccc(C(=O)N2CC(=O)Nc3ccc(Br)cc3C2c2ccc(F)cc2)cc1C (stereo not given) as the compound, how does the Potency read?
A: inconclusive: 14.1 µM [inhibitor, single point]

Q: For CCCn1c(O)c(C=Nc2ccccc2)sc1=S, which Potency is on record?
A: inconclusive: 15.8 µM [inhibitor, single point]

Q: With COc1ccc(CNCCc2ccc(Cl)cc2)cc1OCc1ccccc1 as the compound, how does the Potency read?
A: inconclusive: 11.2 µM [inhibitor, partial curve, poor fit]
